In all, about 33,000 sequences were measured (“E-score (-0.5 to 0.5)”: median about -0.054, highest 2% from about 0.35 on). The list shows a part of the results.
Target: T1, Stb5 (UniProt P38699)
T1 sequence: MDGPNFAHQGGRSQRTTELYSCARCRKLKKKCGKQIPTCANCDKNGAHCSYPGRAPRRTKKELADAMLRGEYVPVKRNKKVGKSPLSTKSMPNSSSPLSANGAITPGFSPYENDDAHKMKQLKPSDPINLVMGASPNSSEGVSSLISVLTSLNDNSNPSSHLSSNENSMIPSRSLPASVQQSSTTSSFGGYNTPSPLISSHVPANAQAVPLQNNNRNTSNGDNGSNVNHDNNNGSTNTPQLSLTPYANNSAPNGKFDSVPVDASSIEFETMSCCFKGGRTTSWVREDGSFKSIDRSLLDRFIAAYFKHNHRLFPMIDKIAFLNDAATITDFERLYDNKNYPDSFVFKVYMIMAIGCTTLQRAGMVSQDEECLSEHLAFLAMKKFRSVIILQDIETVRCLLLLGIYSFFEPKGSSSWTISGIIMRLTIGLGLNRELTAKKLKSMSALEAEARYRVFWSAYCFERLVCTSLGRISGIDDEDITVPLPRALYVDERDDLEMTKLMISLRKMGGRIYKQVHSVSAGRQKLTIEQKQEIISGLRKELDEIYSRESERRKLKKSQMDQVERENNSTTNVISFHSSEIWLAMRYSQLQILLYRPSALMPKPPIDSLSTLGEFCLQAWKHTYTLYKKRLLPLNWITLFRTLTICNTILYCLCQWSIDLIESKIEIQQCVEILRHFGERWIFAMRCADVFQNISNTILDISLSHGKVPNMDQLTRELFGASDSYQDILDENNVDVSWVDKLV
Assay: PBM E-score (8-mer binding enrichment) (E-score (-0.5 to 0.5)); higher = stronger / more preferred TF binding; most listed sequences are background and not binding sites
Conditions: protein concentration: 200 nM; construct: GST-full length
Description: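 Universal 'all 10-mer' protein binding microarrays (Agilent AMADID 015681) probed with GST-tagged S. cerevisiae TFs (full-length or DBD) made by in vitro transcription/translation (PURExpress), about 100-200 nM. Bound TF was detected with fluorescent anti-GST. Each ungapped 8-mer (which stands for itself and its reverse complement) is scored by the PBM enrichment score (E-score), a modified Wilcoxon-Mann-Whitney statistic from -0.5 to +0.5, computed with the Universal PBM Analysis Suite. Scale: above 0.35 generally sequence-specific binding.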

Row | Sequence | PBM E-score
1 | CAGACCCG | 0.119
2 | ACGGGCAA | 0.138
3 | GTCTAAAC | 0.0672
4 | CAATTCAG | -0.221
5 | GTCTCGTA | -0.104
6 | GAGGATCC | -0.00498
7 | ACACATGC | -0.0683
8 | AATCATGC | -0.032
9 | CTCAAGCA | -0.368
10 | TAAACAGA | -0.101
11 | ATCACCTA | -0.11
12 | CATTCTGC | -0.126
13 | AAGTGGAG | -0.197
14 | AACGGTGA | 0.355
15 | AATACAAT | -0.0439
16 | ATCCGTTC | 0.177
17 | CACGACGA | -0.184
18 | ATGAGATC | -0.146
19 | CAAATTAA | -0.0662
20 | CAAAACGA | -0.172
21 | ACCCATCC | -0.11
22 | AAGTGGGG | -0.0897

Row | Sequence | PBM E-score
23 | AGCACTTC | -0.288
24 | GAGCAATA | -0.118
25 | CATTAGTA | 0.0522
26 | TCGATAGA | -0.0352
27 | TCATCAAA | -0.201
28 | CACATCTC | -0.151
29 | TCGTTAAA | 0.196
30 | ACTCATCA | -0.258
31 | ACCGTTAT | 0.145
32 | AATCGATA | -0.274
33 | AGGCACCA | -0.0686
34 | CCTCCAAG | -0.229
35 | GAACACCA | -0.132
36 | ATTAACAA | -0.0234
37 | AGAGCCCG | 0.309
38 | AATAGTTA | -0.0392
39 | ACGCCTAC | -0.128
40 | GAATGACC | 0.238
41 | CCTTCCGC | 0.138
42 | CGCCCCAC | -0.0903
43 | AACGAGCC | -0.13
44 | AGCTTGCC | -0.212

Row | Sequence | PBM E-score
45 | AGGACTCC | -0.136
46 | GCGATGGA | 0.262
47 | AGTATATA | 0.131
48 | CCACTAGA | -0.0459
49 | ACGTGGAG | -0.169
50 | CCGGCTAC | 0.154
51 | AGACTGTC | -0.0493
52 | CCCACGAG | -0.133
53 | CTTGCCTC | -0.0773
54 | ATGCCCTA | -0.0358
55 | CCTCTTCG | -0.0468
56 | CCAAATAG | -0.236
57 | CTGAAAAC | -0.0564
58 | CATAAATA | 0.0322
59 | CGGTGTAC | 0.285
60 | GAGGTATC | -0.0164
61 | TCGAACGA | -0.164
62 | ATACTGAC | -0.153
63 | GCATTGCA | -0.124
64 | AAGGGCAC | -0.257
65 | CGCGGCTA | 0.3
66 | CGGAGTCC | 0.199

Row | Sequence | PBM E-score
67 | ACGCAACC | -0.0595
68 | ACTCATAA | -0.0403
69 | AGCTCATG | -0.278
70 | CTCTAAAG | -0.162
71 | CTGACGCC | 0.159
72 | CTGCCCCC | -0.0747
73 | AAAGGTAG | -0.25
74 | ACCACCTA | -0.134
75 | ATCCCTAG | -0.153
76 | CACTGAAC | -0.169
77 | ACGCGGTC | 0.216
78 | CGTTGGCA | 0.0887
79 | AACATCGT | 0.0798
80 | CTAGAGAC | -0.125
81 | CTCGGAAG | -0.0763
82 | GACCTCTC | -0.126
83 | AACTACCG | 0.31
84 | GATAAACC | 0.169
85 | GGGGTTGA | 0.133
86 | ACATGTGC | -0.0551

Reference: the supplement of paper PMC3334620
